Results are given in words; binding and its absence hold for the method and conditions named. Some results given as binding are weak or reduced against the parent protein; the word gives no strength.
Tests used:
wild type HspB6 (human) [1] = molecular target: T1, wild type HspB6 (human) (UniProt O14558); assay: SEC; reduced HspB1 and HspB6 mixed in buffer S at 0.5 mg/ml each, incubated 1 h at 42°C, run on Superdex 200 HR 10/30 at room temperature; fractions analysed by SDS PAGE; both purified
T1 sequence: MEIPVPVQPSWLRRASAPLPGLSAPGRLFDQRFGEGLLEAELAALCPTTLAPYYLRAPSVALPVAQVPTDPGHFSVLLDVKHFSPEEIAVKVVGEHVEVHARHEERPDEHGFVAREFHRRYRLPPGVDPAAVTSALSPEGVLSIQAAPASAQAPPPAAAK

The chains behind the UniProt entries cited, without tags or fusion partners. Where a name states a change or a piece, a line headed by the entry shows the natural chain unless it says otherwise.
UniProt P04792: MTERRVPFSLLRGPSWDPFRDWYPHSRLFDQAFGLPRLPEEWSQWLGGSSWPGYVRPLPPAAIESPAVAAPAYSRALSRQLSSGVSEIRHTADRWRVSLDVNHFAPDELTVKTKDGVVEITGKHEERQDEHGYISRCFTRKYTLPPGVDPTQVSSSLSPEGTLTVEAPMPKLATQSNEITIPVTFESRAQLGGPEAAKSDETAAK

wild type HspB6 (human) [2] = molecular target: T1, wild type HspB6 (human); assay: condition: only mixture preincubated 1 h on ice (4°C) instead of 42°C; 0.5 mg/ml each; SEC; reduced HspB1 and HspB6 mixed in buffer S at 0.5 mg/ml each, incubated 1 h on ice (4°C), run on Superdex 200 HR 10/30 at room temperature; both purified

Substance | binding (wild type HspB6 (human) [1]) | binding (wild type HspB6 (human) [2])
E41K mutant of HspB1 (from UniProt P04792 1-205) | binds | no binding
G34R mutant of HspB1 (from UniProt P04792 1-205) | binds | no binding
P39L mutant of HspB1 (from UniProt P04792 1-205) | binds | no binding
wild type HspB1 (human small heat shock protein HspB1) (from UniProt P04792 1-205) | binds | no binding

— paper PMC4429025, “Characterization of Mutants of Human Small Heat Shock Protein HspB1 Carrying Replacements in the N-Terminal Domain and Associated with Hereditary Motor Neuron Diseases” (PLoS ONE, 2015)
